# Results reported in the supplement of paper PMC8728848.
# The other results are listed elsewhere or left out.
# How the values were obtained:
# Experiment in all cases: glycan array binding signal (z-score within array); higher = stronger binding
# Conditions in all cases: glycan notation: IUPAC condensed, linker removed
# [1] = molecular target: Fuc(a1-2)[GalNAc(b1-3)]Gal
# Procedure, shortened: (§1)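 Glycan array binding is given as a within-array Z-score, which can be read as non-binding when negative. The arrays, 3228 of them, came from the Consortium for Functional Glycomics database and were retained only where the protein sequence was available. Z-scores were averaged across arrays of the same protein sequence at different concentrations or buffers and across linkers.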
# Fuc(a1-3)GlcNAc = molecular target: Fuc(a1-3)GlcNAc
# Procedure, shortened: as §1
# [2] = molecular target: Fuc(a1-3)[Gal(b1-4)]Glc6S
# Procedure, shortened: as §1
# [3] = molecular target: Fuc(a1-3)[Gal(b1-4)]GlcNAc
# Procedure, shortened: as §1
# [4] = molecular target: Fuc(a1-3)[Gal(b1-4)]GlcNAc(b1-2)Man
# Procedure, shortened: as §1
# [5] = molecular target: Fuc(a1-3)[Gal(b1-4)]GlcNAc(b1-2)Man(a1-3)[Fuc(a1-3)[Gal(b1-4)]GlcNAc(b1-2)Man(a1-6)]Man(b1-4)GlcNAc(b1-4)GlcNAc
# Procedure, shortened: as §1
# [6] = molecular target: Fuc(a1-3)[Gal(b1-4)]GlcNAc(b1-2)Man(a1-3)[Fuc(a1-3)[Gal(b1-4)]GlcNAc(b1-2)Man(a1-6)]Man(b1-4)GlcNAc(b1-4)[Fuc(a1-6)]GlcNAc
# Procedure, shortened: as §1
# [7] = molecular target: Fuc(a1-3)[Gal(b1-4)]GlcNAc(b1-3)Gal(b1-3)[Fuc(a1-4)]GlcNAc
# Procedure, shortened: as §1
# [8] = molecular target: Fuc(a1-3)[Gal(b1-4)]GlcNAc(b1-3)Gal(b1-4)[Fuc(a1-3)]GlcNAc
# Procedure, shortened: as §1
# [9] = molecular target: Fuc(a1-3)[Gal(b1-4)]GlcNAc(b1-3)Gal(b1-4)[Fuc(a1-3)]GlcNAc(b1-3)Gal(b1-4)[Fuc(a1-3)]GlcNAc
# Procedure, shortened: as §1
# [10] = molecular target: Fuc(a1-3)[Gal(b1-4)]GlcNAc(b1-3)GalNAc
# Procedure, shortened: as §1
# [11] = molecular target: Fuc(a1-3)[Gal(b1-4)]GlcNAc(b1-6)GalNAc
# Procedure, shortened: as §1
# [12] = molecular target: Fuc(a1-3)[Gal(b1-4)]GlcNAc(b1-6)[Gal(b1-3)GlcNAc(b1-3)]Gal(b1-4)Glc
# Procedure, shortened: as §1
# [13] = molecular target: Fuc(a1-3)[Gal(b1-4)]GlcNAc6S
# Procedure, shortened: as §1
# [14] = molecular target: Fuc(a1-3)[Gal3S(b1-4)]Glc
# Procedure, shortened: as §1
# [15] = molecular target: Fuc(a1-3)[Gal3S(b1-4)]GlcNAc
# Procedure, shortened: as §1
# [16] = molecular target: Fuc(a1-3)[Gal3S(b1-4)]GlcNAc6S
# Procedure, shortened: as §1
# [17] = molecular target: Fuc(a1-3)[GalNAc(b1-4)]GlcNAc
# Procedure, shortened: as §1
# [18] = molecular target: Fuc(a1-3)[GalNAc(b1-4)]GlcNAc6S
# Procedure, shortened: as §1
# Fuc(a1-4)GlcNAc = molecular target: Fuc(a1-4)GlcNAc
# Procedure, shortened: as §1
# Fuc(b1-3)GlcNAc = molecular target: Fuc(b1-3)GlcNAc
# Procedure, shortened: as §1
# Gal(a1-2)Gal = molecular target: Gal(a1-2)Gal
# Procedure, shortened: as §1
# Gal(a1-3)Gal = molecular target: Gal(a1-3)Gal
# Procedure, shortened: as §1
# Gal(a1-3)Gal(b1-3)GlcNAc = molecular target: Gal(a1-3)Gal(b1-3)GlcNAc
# Procedure, shortened: as §1
# [19] = molecular target: Gal(a1-3)Gal(b1-3)GlcNAc(b1-2)Man
# Procedure, shortened: as §1
# [20] = molecular target: Gal(a1-3)Gal(b1-3)GlcNAc(b1-2)Man(a1-3)[Gal(a1-3)Gal(b1-3)GlcNAc(b1-2)Man(a1-6)]Man(b1-4)GlcNAc(b1-4)GlcNAc
# Procedure, shortened: as §1
# [21] = molecular target: Gal(a1-3)Gal(b1-3)GlcNAc(b1-3)GalNAc
# Procedure, shortened: as §1
# [22] = molecular target: Gal(a1-3)Gal(b1-3)GlcNAc(b1-6)GalNAc
# Procedure, shortened: as §1
# [23] = molecular target: Gal(a1-3)Gal(b1-3)[Fuc(a1-4)]GlcNAc(b1-2)Man(a1-3)[Gal(a1-3)Gal(b1-3)[Fuc(a1-4)]GlcNAc(b1-2)Man(a1-6)]Man(b1-4)GlcNAc(b1-4)GlcNAc
# Procedure, shortened: as §1
# Gal(a1-3)Gal(b1-4)Glc = molecular target: Gal(a1-3)Gal(b1-4)Glc
# Procedure, shortened: as §1
# Gal(a1-3)Gal(b1-4)GlcNAc = molecular target: Gal(a1-3)Gal(b1-4)GlcNAc
# Procedure, shortened: as §1
# [24] = molecular target: Gal(a1-3)Gal(b1-4)GlcNAc(b1-2)Man
# Procedure, shortened: as §1
# [25] = molecular target: Gal(a1-3)Gal(b1-4)GlcNAc(b1-2)Man(a1-3)[Gal(a1-3)Gal(b1-4)GlcNAc(b1-2)Man(a1-6)]Man(b1-4)GlcNAc(b1-4)GlcNAc
# Procedure, shortened: as §1
# [26] = molecular target: Gal(a1-3)Gal(b1-4)GlcNAc(b1-3)GalNAc
# Procedure, shortened: as §1
# [27] = molecular target: Gal(a1-3)Gal(b1-4)GlcNAc(b1-6)GalNAc
# Procedure, shortened: as §1
# [28] = molecular target: Gal(a1-3)Gal(b1-4)[Fuc(a1-3)]GlcNAc
# Procedure, shortened: as §1
# [29] = molecular target: Gal(a1-3)Gal(b1-4)[Fuc(a1-3)]GlcNAc(b1-2)Man(a1-3)[Gal(a1-3)Gal(b1-4)[Fuc(a1-3)]GlcNAc(b1-2)Man(a1-6)]Man(b1-4)GlcNAc(b1-4)GlcNAc
# Procedure, shortened: as §1
# Gal(a1-3)GalNAc = molecular target: Gal(a1-3)GalNAc
# Procedure, shortened: as §1
# [30] = molecular target: Gal(a1-3)[Gal(a1-4)]Gal(b1-4)GlcNAc
# Procedure, shortened: as §1
# [31] = molecular target: Gal(a1-4)Gal(b1-3)GlcNAc(b1-2)Man(a1-3)[Gal(a1-4)Gal(b1-3)GlcNAc(b1-2)Man(a1-6)]Man(b1-4)GlcNAc(b1-4)GlcNAc
# Procedure, shortened: as §1
# Gal(a1-4)Gal(b1-4)Glc = molecular target: Gal(a1-4)Gal(b1-4)Glc
# Procedure, shortened: as §1
# Gal(a1-4)Gal(b1-4)GlcNAc = molecular target: Gal(a1-4)Gal(b1-4)GlcNAc
# Procedure, shortened: as §1
# [32] = molecular target: Gal(a1-4)Gal(b1-4)GlcNAc(b1-2)Man(a1-3)[Gal(a1-4)Gal(b1-4)GlcNAc(b1-2)Man(a1-6)]Man(b1-4)GlcNAc(b1-4)GlcNAc
# Procedure, shortened: as §1
# [33] = molecular target: Gal(a1-4)Gal(b1-4)GlcNAc(b1-3)Gal(b1-4)Glc
# Procedure, shortened: as §1
# Gal(a1-4)GlcNAc = molecular target: Gal(a1-4)GlcNAc
# Procedure, shortened: as §1
binder,measurement,setting,value
BTL (Bryothamnion triquetrum) (protein) ADPICGSSGYSCTTPAILTPKSPGSFPSGYSKVIVTGVGGSYSVYIHRPDGFKVYKASEGGCASFGSYSGGGNSEVGKYGSGGTVVAVACK,glycan array binding signal (z-score),[1],-0.303
same,glycan array binding signal (z-score),Fuc(a1-3)GlcNAc,-0.258
same,glycan array binding signal (z-score),[2],-0.237
same,glycan array binding signal (z-score),[3],-0.24
same,glycan array binding signal (z-score),[4],-0.242
same,glycan array binding signal (z-score),[5],-0.202
same,glycan array binding signal (z-score),[6],0.176
same,glycan array binding signal (z-score),[7],-0.303
same,glycan array binding signal (z-score),[8],-0.241
same,glycan array binding signal (z-score),[9],-0.297
same,glycan array binding signal (z-score),[10],-0.216
same,glycan array binding signal (z-score),[11],-0.215
same,glycan array binding signal (z-score),[12],-0.263
same,glycan array binding signal (z-score),[13],-0.154
same,glycan array binding signal (z-score),[14],-0.25
same,glycan array binding signal (z-score),[15],-0.266
same,glycan array binding signal (z-score),[16],-0.203
same,glycan array binding signal (z-score),[17],-0.188
same,glycan array binding signal (z-score),[18],-0.241
same,glycan array binding signal (z-score),Fuc(a1-4)GlcNAc,-0.199
same,glycan array binding signal (z-score),Fuc(b1-3)GlcNAc,-0.257
same,glycan array binding signal (z-score),Gal(a1-2)Gal,-0.276
same,glycan array binding signal (z-score),Gal(a1-3)Gal,-0.219
same,glycan array binding signal (z-score),Gal(a1-3)Gal(b1-3)GlcNAc,-0.202
same,glycan array binding signal (z-score),[19],-0.17
same,glycan array binding signal (z-score),[20],-0.222
same,glycan array binding signal (z-score),[21],-0.173
same,glycan array binding signal (z-score),[22],-0.212
same,glycan array binding signal (z-score),[23],-0.091
same,glycan array binding signal (z-score),Gal(a1-3)Gal(b1-4)Glc,-0.222
same,glycan array binding signal (z-score),Gal(a1-3)Gal(b1-4)GlcNAc,-0.237
same,glycan array binding signal (z-score),[24],-0.311
same,glycan array binding signal (z-score),[25],-0.094
same,glycan array binding signal (z-score),[26],-0.244
same,glycan array binding signal (z-score),[27],-0.081
same,glycan array binding signal (z-score),[28],-0.247
same,glycan array binding signal (z-score),[29],-0.121
same,glycan array binding signal (z-score),Gal(a1-3)GalNAc,-0.247
same,glycan array binding signal (z-score),[30],-0.124
same,glycan array binding signal (z-score),[31],-0.205
same,glycan array binding signal (z-score),Gal(a1-4)Gal(b1-4)Glc,-0.245
same,glycan array binding signal (z-score),Gal(a1-4)Gal(b1-4)GlcNAc,-0.224
same,glycan array binding signal (z-score),[32],-0.018
same,glycan array binding signal (z-score),[33],-0.208
same,glycan array binding signal (z-score),Gal(a1-4)GlcNAc,-0.276
